# Test results as given in the supplement of paper PMC4604168 (melanoma cell lines).
# The list shows a part of the results. Repeats are few or missing, and single values can be far off.
# Key:
# Assay in all cases: cell count relative to DMSO control; melanoma cells; higher = more viable cells
# Settings in all cases: library dose: standard library concentration; 72 h
# G361 = tested on: G361
# IPC-298 = tested on: IPC-298
# IST-MEL1 = tested on: IST-MEL1
# LB2518-MEL = tested on: LB2518-MEL
# LOXIMVI = tested on: LOXIMVI
# MEL-HO = tested on: MEL-HO
# MZ2-MEL = tested on: MZ2-MEL
# MeWo = tested on: MeWo
# RPMI7951 = tested on: RPMI7951
# RVH-421 = tested on: RVH-421
# SkMel28 = tested on: SkMel28
# SkMel2 = tested on: SkMel2
# SkMel30 = tested on: SkMel30
# SkMel5 = tested on: SkMel5
# UACC257 = tested on: UACC257
# UACC62 = tested on: UACC62
# WM115 = tested on: WM115
# WM1716 = tested on: WM1716
# WM1745 = tested on: WM1745
# WM3526 = tested on: WM3526
# 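Note: cells treated in 1,536-well plates, then fixed and DAPI-stained, with nuclei counted from automated high-throughput microscope images.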
Structure (SMILES),cell count (G361) [%],cell count (IPC-298) [%],cell count (IST-MEL1) [%],cell count (LB2518-MEL) [%],cell count (LOXIMVI) [%],cell count (MEL-HO) [%],cell count (MZ2-MEL) [%],cell count (MeWo) [%],cell count (RPMI7951) [%],cell count (RVH-421) [%],cell count (SkMel28) [%],cell count (SkMel2) [%],cell count (SkMel30) [%],cell count (SkMel5) [%],cell count (UACC257) [%],cell count (UACC62) [%],cell count (WM115) [%],cell count (WM1716) [%],cell count (WM1745) [%],cell count (WM3526) [%]
"COCC[n+]1c2c(n(Cc3cnccn3)c1C)C(=O)c1ccccc1C2=O + COc1ccc(COc2ccc(Cc3cnc(N)nc3N)cc2OC)cc1 [GW2580] (first compound 0.002 µM, partner dose 5 µM)",82.2,85.4,97.6,102,94.3,105,69.1,91.1,110,83,96.8,108,82.7,75.7,55,77.8,107,116,72.9,75.7
"O=C(CCCCCCC(=O)Nc1ccccc1)NO [vorinostat] + NC(=O)Nc1cc(-c2cccc(F)c2)sc1C(=O)N[C@H]1CCCNC1 [AZD7762] (first compound 0.4 µM, partner dose 0.1 µM)",60.9,59.4,83.2,57.2,84.8,71.6,124,55.8,21.4,147,23.7,79.4,63.3,55.1,83.9,53.2,71.9,64.8,66.3,44.1
"OCc1c[nH]c2ccccc12 [Indole-3-carbinol] + CC(C)(C)c1cnc(CSc2cnc(NC(=O)C3CCNCC3)s2)o1 [SNS-032] (first compound 4 µM, partner dose 0.05 µM)",117,109,95.2,85.6,71.5,103,96.5,98.4,26.1,87,49.1,71.4,88.6,69.7,98.2,81.6,79.5,70.3,75.3,107
"Nc1cccc2c1CN(C1CCC(=O)NC1=O)C2=O (stereo not given) [lenalidomide] + COc1ccc(-c2ccc3c(N4CCOCC4)nc(N4C[C@@H](C)O[C@@H](C)C4)nc3n2)cc1CO [KU0063794] (first compound 5 µM, partner dose 0.1 µM)",73.9,75.3,89.1,74.4,88,83.1,83.5,80.3,100,68.7,53.3,83.8,84,47.8,83.6,125,90.8,84.3,68.6,90.8
"C#Cc1cccc(Nc2ncnc3cc(OCCOC)c(OCCOC)cc23)c1 [erlotinib] + c1cc(-c2cnn3cc(-c4ccc(OCCN5CCCCC5)cc4)cnc23)ccn1 [Dorsomorphin] (first compound 4 µM, partner dose 2 µM)",41.8,48.7,104,42.2,81.8,74.7,52.5,49.4,60.7,73.1,40.4,73.5,61.6,58.5,73.7,47.7,51.6,72.9,38.2,55
"COCC[n+]1c2c(n(Cc3cnccn3)c1C)C(=O)c1ccccc1C2=O + CC(C)(C)c1cnc(CSc2cnc(NC(=O)C3CCNCC3)s2)o1 [SNS-032] (first compound 0.002 µM, partner dose 0.05 µM)",80.8,56.1,48.9,18.9,31.5,85.5,23.1,52.4,9.3,85.5,27,14.5,58.9,35.9,21.8,68.7,54.1,44.2,69.1,30
"COCC[n+]1c2c(n(Cc3cnccn3)c1C)C(=O)c1ccccc1C2=O + C[C@@H]1CCN(C(=O)CC#N)C[C@@H]1N(C)c1ncnc2[nH]ccc12 [CP690550] (first compound 0.002 µM, partner dose 5 µM)",94.7,67.2,55.8,36.9,77.6,84.9,37.8,76.5,131,102,68.9,38.1,98,47.8,26.2,81.1,121,75.4,99.7,59.3
"COCC[n+]1c2c(n(Cc3cnccn3)c1C)C(=O)c1ccccc1C2=O + CCc1ccc(CCOc2ccc(CC3SC(=O)NC3=O)cc2)nc1 [pioglitazone] (first compound 0.002 µM, partner dose 10 µM)",70.2,61.9,43.8,25.4,48.9,86.9,30.1,76.4,42.1,96.4,24,42.9,67.2,36.7,40.3,74.9,73.5,65.5,87.3,39.5
"Clc1ccc(Nc2nnc(Cc3ccncc3)c3ccccc23)cc1 [vatalanib] + CO[C@@H]1[C@H](N(C)C(=O)c2ccccc2)C[C@H]2O[C@]1(C)n1c3ccccc3c3c4c(c5c6ccccc6n2c5c31)C(=O)NC4 [Midostaurin] (first compound 10 µM, partner dose 0.4 µM)",29.4,31.4,51.1,26.6,30.8,39.8,25.3,48.7,32.9,49.8,33.9,30.4,66.6,38.1,55.9,56.2,32.2,29.7,18.6,48.8
"Cn1c(Nc2ccc(C(F)(F)F)cc2)nc2cc(Oc3ccnc(-c4ncc(C(F)(F)F)[nH]4)c3)ccc21 + O=C(CCCCCCC(=O)Nc1ccccc1)NO [vorinostat] (first compound 0.4 µM, partner dose 0.4 µM)",25.1,51.9,78,34.1,53,62.9,80.6,71.9,34.9,40.4,44.2,42.5,51.6,31.7,58.2,54.3,41,64.6,62.5,38.7
"Nc1cccc2c1CN(C1CCC(=O)NC1=O)C2=O (stereo not given) [lenalidomide] + Cc1cc(N2CCOCC2)cc2[nH]c(-c3c(NC[C@@H](O)c4cccc(Cl)c4)cc[nH]c3=O)nc12 [BMS536924] (first compound 5 µM, partner dose 1 µM)",80.7,77.6,83.5,80.5,86.6,84.1,110,68,88.2,100,69.7,66.4,79.7,89.4,94,113,85.6,94.1,38.6,68.4
"COCC[n+]1c2c(n(Cc3cnccn3)c1C)C(=O)c1ccccc1C2=O + OCCn1cc(-c2cnc3nnn(Cc4ccc5ncccc5c4)c3n2)cn1 [PF04217903] (first compound 0.002 µM, partner dose 5 µM)",69.4,66,115,27.9,51.5,104,39.2,50.5,29.7,16.4,51.4,46,76.7,31.7,24.4,94,75.3,56.9,96.2,42.4
"OCc1c[nH]c2ccccc12 [Indole-3-carbinol] + COCC[n+]1c2c(n(Cc3cnccn3)c1C)C(=O)c1ccccc1C2=O [YM155] (first compound 4 µM, partner dose 0.002 µM)",100,42.3,61,44.6,99.5,109,30.3,67.7,72.7,137,35,50.4,73.5,57.5,34.6,54.5,88.9,77.9,90.7,52.1
"Nc1cccc2c1CN(C1CCC(=O)NC1=O)C2=O (stereo not given) [lenalidomide] + COc1cc(Nc2ncc(F)c(Nc3ccc4c(n3)NC(=O)C(C)(C)O4)n2)cc(OC)c1OC [Tamatinib] (first compound 5 µM, partner dose 2 µM)",58.8,102,60.7,66.1,29.4,83.6,91.9,71.9,19.6,69.3,65.4,77,91.9,50.5,67.9,70.7,59.3,62.1,27.7,74.6
